The other results are listed elsewhere or left out. The list includes weakly bound sequences.

For this test, the target named is MaxL homodimer (UniProt P61244). Kind of test: universal protein-binding microarray (PBM). Conditions: PBS-based mixture, 10 nM His-tagged protein dimer, 2% milk, 200 ng/uL BSA, 50 ng/uL salmon testes DNA, 0.02% TX-100; detection with Alexa 488 anti-His …; high values mean tight binding; most listed sequences are background and not binding sites; double strand, one strand shown.
Chain of UniProt P61244 (P61244 whole entry): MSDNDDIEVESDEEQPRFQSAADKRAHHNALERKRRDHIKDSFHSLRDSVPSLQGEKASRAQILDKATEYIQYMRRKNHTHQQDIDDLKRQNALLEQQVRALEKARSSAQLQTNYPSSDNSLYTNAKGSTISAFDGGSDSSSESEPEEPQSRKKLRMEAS
For TCGATTCA, the binding signal (normalized occupancy) came to 0.0762.

Turning to CAGCGTTC, the binding signal (normalized occupancy) came to 0.0716.

Consider ATTATTTC, for which the binding signal (normalized occupancy) was determined as 0.0783. For the sequence AATTGATG, the binding signal (normalized occupancy) was 0.0797. For the sequence TAAGCCGA, the binding signal (normalized occupancy) is 0.067. Take CAGGGCTA: the binding signal (normalized occupancy) turned out to be 0.0741. As to CGGGTACC, the binding signal (normalized occupancy) turned out to be 0.0725.

For ACAATCAG, the binding signal (normalized occupancy) was 0.0798.

Take GAAAGCCA: the binding signal (normalized occupancy) came out at 0.0709. Regarding CCGACACC, the binding signal (normalized occupancy) worked out at 0.0792. The result for CCGCGATC reads 0.0738; that for ACGGAATA, 0.0748; that for CTTGCCCC, 0.0723.

As to GAGGCACC, the binding signal (normalized occupancy) worked out at 0.0768. The result for ACTCCTAC reads 0.0716. For the sequence AACTGCTC, the binding signal (normalized occupancy) is 0.0708. On to ACACGCTG, for which the binding signal (normalized occupancy) was determined as 0.108. The result for AATCGCCG reads 0.0731; that for CTATACAA, 0.0801; that for GACCAATA, 0.0777. Regarding ATTATATA, the binding signal (normalized occupancy) was found to be 0.0809.

For the sequence ACGCAACG, the binding signal (normalized occupancy) came to 0.0717.

As to TGCTTTAA, the binding signal (normalized occupancy) was found to be 0.0772. For GGCCTGAC, the binding signal (normalized occupancy) was 0.0707. As to CGAGTATC, the binding signal (normalized occupancy) was found to be 0.0727. The result for CTATCGTC reads 0.0776; that for CGATCAGC, 0.0743. As to CAAGCAAA, the binding signal (normalized occupancy) turned out to be 0.0734. Consider AATACGCT, for which the binding signal (normalized occupancy) came to 0.0709. For CGGCCTAG, the binding signal (normalized occupancy) is 0.0638. On to CGAGTCAA, for which the binding signal (normalized occupancy) was 0.0786. On to GGTCCGCA, for which the binding signal (normalized occupancy) came to 0.0744. As to CCGGGAGA, the binding signal (normalized occupancy) amounted to 0.0692. The result for AGCGCGTA reads 0.0709; that for CCGGTAAA, 0.0726. With CGATAAAG the figure was 0.0738.

As for CCCTGGAC, the binding signal (normalized occupancy) was 0.0729. On to ACGCGGTA, for which the binding signal (normalized occupancy) was determined as 0.0786. As to CGGCAAGC, the binding signal (normalized occupancy) is 0.0718. The result for TGACCCAA reads 0.0776; that for CTGTTTCC, 0.0716; that for ACTAATCG, 0.0713.

For GGCTTCTA, the binding signal (normalized occupancy) came out at 0.0748. Consider GATATATA, for which the binding signal (normalized occupancy) is 0.0854. The result for GTATTGGA reads 0.078; that for GCTCGTCC, 0.0664; that for CCTTTGAC, 0.0814. As to AGGGAGGC, the binding signal (normalized occupancy) stood at 0.0693. The result for CGGACAAG reads 0.0778; that for AATCCAAG, 0.0718; that for CCTGAAAG, 0.0724. For the sequence AATGGCAC, the binding signal (normalized occupancy) was determined as 0.078.

With TATGTGAA, the binding signal (normalized occupancy) was found to be 0.0871. The result for ACAAGGTA reads 0.0767. The result for AACAGTGA reads 0.0726. On to CAGTTCGA, for which the binding signal (normalized occupancy) came out at 0.0725. Regarding ATCAGCTG, the binding signal (normalized occupancy) came to 0.0721. With ACCTAGCT the figure was 0.0699; with CGCCAACC, 0.0678; with CACAGGTA, 0.0756.

As for GACTGGCC, the binding signal (normalized occupancy) turned out to be 0.0683. Take TCAATACA: the binding signal (normalized occupancy) came to 0.0786.

As to AGCCGCTC, the binding signal (normalized occupancy) is 0.066.

With CGCTCGAA, the binding signal (normalized occupancy) was 0.0689.

As to GATCCGAA, the binding signal (normalized occupancy) stood at 0.072.

Regarding AAGCACCC, the binding signal (normalized occupancy) came out at 0.0753. For the sequence AGAGTTTA, the binding signal (normalized occupancy) is 0.0728. With AACTACCC the figure was 0.078; with CTAATCGA, 0.0701; with AGATCATC, 0.0816. On to AACGGCAC, for which the binding signal (normalized occupancy) came out at 0.0761. With CGATCTTA the figure was 0.0781; with ACGTAAAA, 0.0808; with CTGGCAAG, 0.0667.

With CGTATTAC, the binding signal (normalized occupancy) worked out at 0.0764. The result for GTGCGGTA reads 0.0756. On to AAGTACAT, for which the binding signal (normalized occupancy) came out at 0.0812. With GAAACAAA the figure was 0.0714; with TAATCCTA, 0.0761. With GGCGGGGA the figure was 0.0803; with GATGTTAA, 0.079. With CGAGGCCA the figure was 0.0729. Take CAAAAGAG: the binding signal (normalized occupancy) was 0.0755. Regarding CTTCCCCA, the binding signal (normalized occupancy) is 0.0787. Regarding AAGGTTCG, the binding signal (normalized occupancy) came out at 0.0697. As for AAGTCCGT, the binding signal (normalized occupancy) stood at 0.071.

For AGAGGATC, the binding signal (normalized occupancy) turned out to be 0.0698.

Regarding ACTCTATG, the binding signal (normalized occupancy) was 0.0736. Take ACAGAACT: the binding signal (normalized occupancy) is 0.0718. On to GCCGAGTA, for which the binding signal (normalized occupancy) was 0.0689. With ATGCTACC the figure was 0.0827; with CGTTGCCA, 0.0801. With ACTCCACA, the binding signal (normalized occupancy) was determined as 0.0787. With CAGTTCGG the figure was 0.0687. The result for ATCTAGTA reads 0.0744; that for CCCGTGAA, 0.0812; that for AAGGATAA, 0.0776.

As to AAAACAAC, the binding signal (normalized occupancy) was 0.0703. The result for AATAGTTA reads 0.078; that for AATATGGA, 0.0859; that for ATGTTCAG, 0.0809. As to AACGCTGA, the binding signal (normalized occupancy) was 0.0816. With TTGTTAAA the figure was 0.0761.

Consider ACCGTAAC, for which the binding signal (normalized occupancy) was 0.0752. For the sequence ACGGATGA, the binding signal (normalized occupancy) was determined as 0.0808. With CGCCAACG the figure was 0.075; with TCGATGAA, 0.075; with CGTTCAGC, 0.0709. As to CTCGACCC, the binding signal (normalized occupancy) worked out at 0.0759. With AGATCCTC the figure was 0.0822; with TATAGTGA, 0.0805. With AACTCGCC the figure was 0.0734; with ATCTACGA, 0.0789.

Take CGTTATTC: the binding signal (normalized occupancy) came to 0.0797. In the case of CCAATACG, the binding signal (normalized occupancy) was found to be 0.0775. On to CGATGCCG, for which the binding signal (normalized occupancy) amounted to 0.0689. With CCACGTAG the figure was 0.0817; with ACCTTCCG, 0.0787; with ATCAAGTC, 0.0758. As to CTAGTCAC, the binding signal (normalized occupancy) turned out to be 0.0824. With AAATTGGC the figure was 0.0752; with CATCTGTA, 0.087.

As for CGGGGACC, the binding signal (normalized occupancy) was found to be 0.0726. In the case of CTGGGGCC, the binding signal (normalized occupancy) came to 0.0705. With AAGCAAAA the figure was 0.075; with GGAACACA, 0.0785; with CACCTACG, 0.0728. With CACATGAG the figure was 0.109. For CATTATTA, the binding signal (normalized occupancy) worked out at 0.0832. With ACCGCGTA the figure was 0.0727; with GAAAGGTC, 0.0773; with CAAACTAG, 0.0717. With CAGGTTTC the figure was 0.0771; with AGTACTTA, 0.0757; with AGCCTCCG, 0.0658.

AGCGAACA: the binding signal (normalized occupancy) was found to be 0.0697.

Turning to GTCTGAGA, the binding signal (normalized occupancy) was 0.0701. The result for CGAAAGGC reads 0.0716; that for CACCGCTA, 0.0676; that for AATCTCTA, 0.0765. The result for CCCTATAC reads 0.0796; that for GACAAATA, 0.0759. The result for CTATCTGC reads 0.0756. Take AAGGATAT: the binding signal (normalized occupancy) came out at 0.0819. With ACTTTGCC the figure was 0.0691; with ACGCTATA, 0.085.

Turning to GGTCTTGA, the binding signal (normalized occupancy) was 0.0779. With GATACAAA the figure was 0.0725; with ATTCGTGC, 0.0779.

On to ATATCGCA, for which the binding signal (normalized occupancy) came out at 0.0785. The result for CACATTCA reads 0.0824; that for ACGTTTCG, 0.0744. With TAACCTAA the figure was 0.0715; with ATTCGCGG, 0.0709; with CAGCACCA, 0.0778.

As for AGGAATAT, the binding signal (normalized occupancy) was found to be 0.0787.

Regarding AAACATAG, the binding signal (normalized occupancy) stood at 0.0761. With TTTTAAAA the figure was 0.0656. The result for GGTAGAAA reads 0.0758; that for TACGTAGA, 0.0768; that for GACCTCTA, 0.0707. Consider AGGAACAG, for which the binding signal (normalized occupancy) is 0.0793.

As to AACGGTCC, the binding signal (normalized occupancy) was determined as 0.068.

With CGACGGCA, the binding signal (normalized occupancy) was 0.072. Consider GGGCTTCA, for which the binding signal (normalized occupancy) was 0.0716. With AAGGTTAT the figure was 0.0732; with ATGAACTC, 0.0855; with ATGCCACA, 0.0905.

For the sequence ATCAGGAT, the binding signal (normalized occupancy) was found to be 0.075. With CTCAGTGC the figure was 0.0665; with AGTCCGTC, 0.067. With CTGAGCCC the figure was 0.0717; with ATAAACGA, 0.0801. With TCCGAGGA the figure was 0.0705; with CCATCTAC, 0.0774; with GAGCGTAA, 0.0774. Take ACTAGGGA: the binding signal (normalized occupancy) worked out at 0.0789. For the sequence ACGTTTAG, the binding signal (normalized occupancy) worked out at 0.0812. In the case of AACCGGCC, the binding signal (normalized occupancy) is 0.0652. Turning to AAACCCCT, the binding signal (normalized occupancy) was found to be 0.0766. With ATGAACGA, the binding signal (normalized occupancy) came out at 0.0808. The result for TCCCGACA reads 0.0852; that for CTACGTCA, 0.0708. As for CGATCCCA, the binding signal (normalized occupancy) came out at 0.0778. As to ATGCAAAG, the binding signal (normalized occupancy) came out at 0.0776. The result for GTAGAAAC reads 0.0765. With AACAGGAG the figure was 0.0788. Take TACCTACA: the binding signal (normalized occupancy) turned out to be 0.0795. Regarding TCCAAGCA, the binding signal (normalized occupancy) stood at 0.0737. The result for AGCCCAAT reads 0.0746; that for ATAAGACC, 0.0818; that for CAGAAGCA, 0.0742. With CGCTCATC the figure was 0.0725; with CCCTCCTC, 0.0734. With ACGCTCGG the figure was 0.0694. Take CACTTCGG: the binding signal (normalized occupancy) turned out to be 0.0755. With GTCCAGCA the figure was 0.0732; with GACCCGCA, 0.0789; with AGCCCTGC, 0.0649. As to GAACGCAC, the binding signal (normalized occupancy) turned out to be 0.0789. ACGCAGGG: the binding signal (normalized occupancy) was 0.0718.

With GGGAGGAC, the binding signal (normalized occupancy) amounted to 0.0747. With AAGTCCGC, the binding signal (normalized occupancy) turned out to be 0.0701. The result for ATCGGATA reads 0.0842; that for CCTGAGTC, 0.0706; that for AGTACTGA, 0.0748. The result for AATCCACT reads 0.0739; that for CGTCATAG, 0.075; that for AGTGTCAA, 0.0751. With ATCCGCTG the figure was 0.0744.

As to CCCGGGAA, the binding signal (normalized occupancy) is 0.0686. AGTCCTAG: the binding signal (normalized occupancy) is 0.0729. Regarding AAGTATCG, the binding signal (normalized occupancy) is 0.0757. For ATTATCAA, the binding signal (normalized occupancy) was 0.0805.

As for CGCTATAG, the binding signal (normalized occupancy) stood at 0.0755.

On to CTACTCGC, for which the binding signal (normalized occupancy) came to 0.0773. The result for AACCTGCA reads 0.0719; that for ACATAAGC, 0.0755; that for AGTCACAC, 0.0886.
